Assay results reported in the supplement of paper PMC10126150.
Values marked as one replicate rest on one cluster of the flow cell; about a third of the high ones do not repeat.

tested on: ATP; assay: switch fluorescence ratio, 500 uM ATP over buffer (Cy3 cluster intensity, sum of 5 cycles each) (fold (ratio)); higher = stronger signal-on switching upon ATP binding; sequences stand for … in TCGTCGGCAGCGTCAGATGTGTATAAGAGACAGTTTTTTTTTTTTTTTTTTTTTTTTT…TC; settings: aptamer strand: ATP DNA aptamer (quencher-CACCTGGGGGAGTATTGCGGAGGAAGG + anchor), 100 nM annealed; ATP concentration: 500 uM; one replicate
How it was run: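 Imaging in selection buffer was followed by imaging after 15 min with 500 uM ATP at 22 °C, for Cy3-labelled switching-strand clusters annealed to 100 nM quencher-labelled ATP aptamer on a modified Illumina MiSeq flow-cell. Five of these buffer/ATP cycles ran, separated by NaOH stripping and re-annealing. The fluorescence ratio per cluster is summed target-cycle over summed buffer-cycle Cy3 intensity, averaged per switch-domain sequence; clusters outside 100-1000 RFU were removed.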
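Further: ATP exposure 15 min at 22 °C before imaging.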

Sequence	switch fluorescence ratio
GCTATCGATG	0.935
GCTATCTTG	0.985
GCTATGGGTG	1.01
GCTCAAGAAG	1.03
GCTCAAGAT	1.21
GCTCAATGGG	0.968
GCTCATACGC	1.21
GCTCATCTGC	0.957
GCTCATTCAT	0.995
GCTCATTCTC	1
GCTCCACACG	1.49
GCTCCGCCTT	3.92
GCTCCTTGTC	1.07
GCTCGAATGT	1.01
GCTCGACCTA	1.02
GCTCGATCCC	1.04
GCTCGCCTCC	1.43
GCTCGGATAG	1.05
GCTCGGGGGT	0.979
GCTCGTAAAC	1.82
GCTCGTAGTA	1.01
GCTCGTATAG	1
GCTCTACTG	0.993
GCTCTGACCC	1.04
GCTCTGCAGC	2.45

Sequence	switch fluorescence ratio
GCTCTGGACG	1.02
GCTCTGGCAC	1.11
GCTCTTATAG	0.985
GCTGAAATTC	1
GCTGAAGATT	0.996
GCTGAAGTGA	1.04
GCTGAAGTGG	0.999
GCTGAATAT	1.01
GCTGAGTGCG	1.02
GCTGATTATT	0.998
GCTGATTTTC	0.999
GCTGCACGCC	1.04
GCTGCCAGCA	0.999
GCTGCGATAA	2.52
GCTGCGTACG	0.993
GCTGCTTGTG	1.05
GCTGCTTGTT	1.04
GCTGGACTTA	0.994
GCTGGAGGTA	0.974
GCTGGCCGGG	1.01
GCTGGGCCCA	0.968
GCTGGTAAC	1
GCTGGTAACG	0.974
GCTGGTATTC	1.01
GCTGGTCACA	1.01

Sequence	switch fluorescence ratio
GCTGGTCTGA	1.01
GCTGGTGGCA	1.04
GCTGGTGGGC	1
GCTGTAGGGT	1.04
GCTGTATGGT	0.98
GCTGTATGTG	0.976
GCTGTCAAAG	0.982
GCTGTCCATT	1
GCTGTCCCTG	0.982
GCTGTGCCCT	0.977
GCTGTGTTTC	1.04
GCTGTTGGCT	1.01
GCTTAAGCGC	0.992
GCTTACTTGT	0.989
GCTTCAAAT	1.01
GCTTCACGCA	1.03
GCTTCCAACT	1.01
GCTTCGAACG	1.11
GCTTCGTCGG	1.05
GCTTCTAAGA	1.02
GCTTCTACAT	0.97
GCTTGAGAGT	0.98
GCTTGAGTCA	0.985
GCTTGATGGA	1.01
GCTTGGAGAC	0.971

Sequence	switch fluorescence ratio
GCTTGTCAGA	0.994
GCTTGTCAGC	0.992
GCTTTATAAA	1.09
GCTTTATTAG	1.02
GCTTTATTTC	1
GCTTTCACAG	1.01
GCTTTCCGGT	1.01
GCTTTGGACT	1.02
GCTTTGTCAA	0.983
GCTTTTCCGA	1.03
GCTTTTGCGA	1.01
GCTTTTGCGC	1.02
GCTTTTTCCG	1.13
GGAAAAATAG	1.01
GGAAAAGCTT	1.02
GGAAAGACCA	1.03
GGAAAGTGAC	0.933
GGAAATCTTT	0.953
GGAACAGGTC	1.03
GGAACCAACA	1.04
GGAACGATGG	0.969
GGAACGTTTT	1.02
GGAACTGACT	1.07
GGAAGAATGC	1.05
GGAAGCATTT	1.01

Sequence	switch fluorescence ratio
GGAAGGACAT	1.06
GGAATAGCAT	1.03
GGAATAGCTA	1.02
GGAATAGGTA	1.02
GGAATCCTAA	0.982
GGAATCGTT	1
GGAATTAGAA	0.983
GGAATTAGTT	1
GGAATTATGG	0.943
GGAATTGACT	0.985
GGAATTGCAT	0.972
GGAATTTGAA	0.943
GGAATTTGAC	1
GGACACAGGG	1.16
GGACAGTCGA	0.971
GGACATTGGT	1.02
GGACCAACCT	1.33
GGACCAACGC	0.973
GGACCCGACA	1.1
GGACCCGGAA	1.28
GGACCCTTTT	1.01
GGACCTGGT	0.988
GGACCTTCGG	1.07
GGACGATCCA	0.962
GGACGGAAGT	1.01

Sequence	switch fluorescence ratio
GGACGGTATA	1.08
GGACGGTTT	1.01
GGACGTGGCC	1.01
GGACTAAAGC	1.03
GGACTGAGAG	0.988
GGACTGCGGC	1.01
GGACTGTGAG	1.02
GGAGAAAGGT	1.02
GGAGACTTGT	0.997
GGAGATAAGT	1.04
GGAGCAGCGA	1.12
GGAGCCTTTA	1
GGAGCGGCCG	0.943
GGAGGACAC	1.02
GGAGGACGTC	1.03
GGAGGCACTA	0.993
GGAGGCGCGT	1.02
GGAGGCTCGT	1.01
GGAGGGAAAA	0.989
GGAGGGACGT	0.992
GGAGGGTCCC	1.01
GGAGGGTTCG	0.973
GGAGGTGTGG	1.01
GGAGTAAATT	0.972
GGAGTACACC	1.02

Sequence	switch fluorescence ratio
GGAGTATGT	1
GGAGTATGTA	0.99
GGAGTATTAA	1.02
GGAGTCATT	0.982
GGAGTCGAGT	1.03
GGAGTCGATG	0.987
GGAGTGCGTA	1.08
GGAGTGTAGT	0.979
GGAGTTCACC	0.939
GGAGTTGCTT	0.997
GGATAAAGGA	0.967
GGATAACGTT	1.01
GGATACAAGC	0.964
GGATACCAAG	1.01
GGATACCC	0.988
GGATATACAT	1
GGATATATTC	0.998
GGATCAAAAC	0.97
GGATCACGGA	1.02
GGATCAGATG	0.97
GGATCCATGT	0.997
GGATCCCGGG	1
GGATCCGCTG	1.89
GGATCCTAGT	1.05
GGATCGCCAG	0.963

Sequence	switch fluorescence ratio
GGATCGTGAC	1.03
GGATCTATG	1.01
GGATCTGGGC	1.01
GGATGAAGCG	0.999
GGATGAATAC	1.31
GGATGATTG	0.903
GGATGCAGCG	1.1
GGATGCGTGG	1.02
GGATGCTAAC	1.16
GGATGCTCAC	1.03
GGATGCTTTG	1.01
GGATGTATCA	0.951
GGATTAAGGC	1.06
GGATTCGGTT	0.979
GGATTCTGAG	0.996
GGATTGACGC	0.967
GGATTGCGTT	0.968
GGATTGTGA	1.02
GGATTTATGG	1.02
GGATTTCTAT	0.99
GGATTTTCCT	1.02
GGCAACCAAC	1.14
GGCAACGAGC	1.01
GGCAATTTCT	1.1
GGCACACGTT	1.02
